Experiments:
hPD-L1-Fc [1] = target: T1, hPD-L1-Fc (human, UniProt Q9NZQ7 19-238); assay: SPR (Biacore 3000), PD-L1-Fc immobilized on CM5, Langmuir 1:1
T1 construct: A bought IgG1-Fc fusion (R&D 156-B7) was used for the selection; also called hPD-L1-Fc1; hPD-L1-Fc (203395); not shown: Fc part

human PD-L1 on cells [2] = target: T2, human PD-L1 on cells (human, UniProt Q9NZQ7 19-290); assay: flow cytometry titration on PD-L1 overexpressing HEK293 cells; 0h mouse serum
T2 construct: whole, on cells; also called hPD-L1; HEK293-hPD-L1-cells

human PD-L1 on cells [3] = target: T2, human PD-L1 on cells; assay: flow cytometry titration on PD-L1 overexpressing HEK293 cells; 0h human serum
human PD-L1 on cells [4] = target: T2, human PD-L1 on cells; assay: flow cytometry titration on PD-L1 overexpressing HEK293 cells; 24h mouse serum
human PD-L1 on cells [5] = target: T2, human PD-L1 on cells; assay: flow cytometry titration on PD-L1 overexpressing HEK293 cells; 24h human serum
human PD-L1 on cells [6] = target: T2, human PD-L1 on cells; assay: flow cytometry titration on PD-L1 overexpressing HEK293 cells after 24 h at 37° C. in human serum; after 24 h at 37° C. in human serum
human PD-L1 on cells [7] = target: T2, human PD-L1 on cells; assay: flow cytometry titration on PD-L1 overexpressing HEK293 cells; curve '0h mouse serum' (circles, control without 24 h incubation)
human PD-L1 on cells [8] = target: T2, human PD-L1 on cells; assay: flow cytometry titration on PD-L1 overexpressing HEK293 cells; curve '0h human serum' (circles, control without 24 h incubation)
human PD-L1 on cells [9] = target: T2, human PD-L1 on cells; assay: flow cytometry titration on PD-L1 overexpressing HEK293 cells; curve '24h mouse serum' (triangles, after 24 h at 37°C in mouse serum)
human PD-L1 on cells [10] = target: T2, human PD-L1 on cells; assay: flow cytometry titration on PD-L1 overexpressing HEK293 cells; curve '24h human serum' (triangles, after 24 h at 37°C in human serum)
hPD-1 = target: T3, hPD-1 (human, UniProt Q15116 25-167, limits assumed); assay: SPR (Biacore), hPD-1 immobilised on a CM5 chip, 211883 injected alone
T3 construct: Soluble protein used in SPR, immobilized or injected at 1 µM; also called human PD-1

human PD-L1 on cells [11] = target: T2, human PD-L1 on cells; assay: flow cytometry, H460 cells (native hPD-L1), 1 µM Affilin
human PD-L1 on cells [12] = target: T2, human PD-L1 on cells; assay: flow cytometry, HEK293-hPD-L1 overexpressing cells, 1 µM Affilin
hPD-L1-Fc [13] = target: T1, hPD-L1-Fc; assay: SPR (Biacore), PD-L1 immobilized on CM-5 chip, 1:1 Langmuir fit (FIG. 3)

Binder	Kd (hPD-L1-Fc [1]) [nM]	flow cytometry cell binding signal at 1 µM (read-out not named) (human PD-L1 on cells [11])	flow cytometry cell binding signal at 1 µM (read-out not named) (human PD-L1 on cells [12])	other results
Affilin® 211883 (designed binder, Ubiquitin mutein modified in the alpha-helical region) MQIFVKTLTGKTITLAVKPNDTILKVKVWIEIKEGIPPDQQRLIWAGKQLEDGRTLSDYNIQKESTLHLVLRLRAA	91	–	–	binding result (hPD-1): no binding (tested: 1 µM)
Affilin® 211904 (designed binder, Ubiquitin mutein with an insertion between positions 9 and 10; Detected via Strep-Tag in flow cytometry) MQIFVKTLTVLEMGKTITLEVEPSDTIENVKAKIQDKEGIPPDQQRLIWAGKQLEDGRTLSDYNIHSFPMLELLLTLRAA	4	18	41	Kd (hPD-L1-Fc [13]): 3.6 nM
Affilin® 211620 (designed binder, Ubiquitin mutein; Detected via Strep-Tag in flow cytometry) MQIFVWTIITKRITLEVEPSDTIENVKAKIQDKEGIPPDQQHLVWEGKQLEDGRTLSDYNIEKYDYLFLNLHLRAA	15	6.1	95.3	–

Second part, led by results:

Kd (hPD-L1-Fc [1]) [nM]	flow cytometry cell binding signal at 1 µM (read-out not named) (human PD-L1 on cells [11])	flow cytometry cell binding signal at 1 µM (read-out not named) (human PD-L1 on cells [12])	Binder	other results
0.096	–	–	Affilin® 215220 (designed binder, Ubiquitin mutein with an insertion between positions 9 and 10; Detected via Strep-Tag in flow cytometry; also called CID 215220) MQIFVKTLTFKIIPAGKTITLEVEPSDTIENVKAKIQDKEGIPPDQQRLIWAGKQLEDGRTLSDYNIDWPAMLTLSLPLRAA	EC50 (read off the curve) (human PD-L1 on cells [2]): ~0.7 nM; EC50 (read off the curve) (human PD-L1 on cells [3]): ~0.5 nM; EC50 (read off the curve) (human PD-L1 on cells [4]): ~1 nM; EC50 (read off the curve) (human PD-L1 on cells [5]): ~0.5 nM; Kd (human PD-L1 on cells [6]): 0.4 nM; Kd (human PD-L1 on cells [7]): 0.67 nM; Kd (human PD-L1 on cells [8]): 0.5 nM; Kd (human PD-L1 on cells [9]): 1.15 nM; Kd (human PD-L1 on cells [10]): 0.48 nM
11	–	–	Affilin® 215306 (designed binder, Ubiquitin mutein with an insertion between positions 9 and 10; also called CID 215306) MQIFVKTLTEQAQEHGKTITLEVEPSDTIENVKAKIQDKEGIPPDQQRLIWAGKQLEDGRTLSDYNIPYWWPLFLFLGLRAA	–
8	–	–	Affilin® 215192 (designed binder) MQIFVKTLTGKTITLAVKPNDTILKVKVWIEIKEGIPPDQQRLIWAGKQLEDGRTLSDYNIQKESTLHLVLRLRAAGGGGSGGGGSGGGGSGGGGSMQIFVKTLTGKTITLAVKPNDTILKVKVWIEIKEGIPPDQQRLIWAGKQLEDGRTLSDYNIQKESTLHLVLRLRAA	–
100	3.98	289	Affilin® 215258 (designed binder, Ubiquitin mutein; Detected via Strep-Tag in flow cytometry; also called CID 215258) MQIFVVTEEDKVITLEVEPSDTIENVKAKIQDKEGIPPDQQMLHWSGKQLEDGRTLSDYNIFDAKILLLHLILRAA	–
220	–	–	Affilin® 211960 (designed binder) MQIFVQTDTGKTITLEVEPSDTIENVKAKIQDKEGIPPDQQRLIWAGKQLEDGRTLSDYNIGIVAPLHLVLRLRAAMQIFVFTWTGKTITLEVEPSDTIENVKAKIQDKEGIPPDQQRLIWAGKQLEDGRTLSDYNIGNGWMLHLVLRLRAA	–
